Some entries of the source have several records that differ or are many. Only these are listed. The source may hold further records. The records of an entry appear to be repeats (runs, samples, wells or individuals).
Target: T1, DGKα (hDGKalpha(1-735)-N-His) (Homo sapiens, UniProt P23743)
T1 construct: hDGKalpha(1-735)-N-His; His (N); made in house; host or cells: Sf21 insect cells (baculovirus)
Test: In vitro DGK inhibition assay, DGKalpha ADP Glo (in house)
Type: biochemical
Conditions: 4 nM DGKα, 25 μM ATP, 125 uM DLG in liposomes, 1 hour reaction
Method: DGKα and ζ kinases use ATP to phosphorylate the substrate 1,2-dilauroyl-sn-glycerol (DLG, incorporated in the liposomes). ATP is converted to ADP as a result of this enzymatic reaction. After the kinase reaction, an ATP-depletion reagent is added to terminate the kinase reaction and deplete any remaining ATP, leaving only ADP. Second, a detection reagent is added to simultaneously convert ADP to ATP and allow the newly synthesized ATP to be converted to light using a coupled luciferase/luciferin reaction.
Full length DGKα and ζ were expressed in Sf21 insect cells by infecting the cells with the baculovirus stock at MOI of 2. Purification of both enzymes was performed as previously described by Takahashi et al., PeerJ, 2018 (Takahashi, D.; Sakane, F. Expression and purification of human diacylglycerol 5 kinase alpha from baculovirus-infected insect cells for structural studies. PeerJ2018, 6, No. e5449).
A concentrated liposome solution was prepared in assay buffer without DTT and BSA: 2 mM of DLG in 21 mM of total liposome (2 mM DLG/8 mM PS/11 mM PC). […] After 1 hour reaction, the amount of ADP formed was detected with the ADP-Glo kinase assay (Promega) according to the manufacturer instructions. […] The multidrop combi was used as a liquid handler and luminescence was read with 0.5 s by the envision reader (PE).

T1 sequence (P23743 whole entry): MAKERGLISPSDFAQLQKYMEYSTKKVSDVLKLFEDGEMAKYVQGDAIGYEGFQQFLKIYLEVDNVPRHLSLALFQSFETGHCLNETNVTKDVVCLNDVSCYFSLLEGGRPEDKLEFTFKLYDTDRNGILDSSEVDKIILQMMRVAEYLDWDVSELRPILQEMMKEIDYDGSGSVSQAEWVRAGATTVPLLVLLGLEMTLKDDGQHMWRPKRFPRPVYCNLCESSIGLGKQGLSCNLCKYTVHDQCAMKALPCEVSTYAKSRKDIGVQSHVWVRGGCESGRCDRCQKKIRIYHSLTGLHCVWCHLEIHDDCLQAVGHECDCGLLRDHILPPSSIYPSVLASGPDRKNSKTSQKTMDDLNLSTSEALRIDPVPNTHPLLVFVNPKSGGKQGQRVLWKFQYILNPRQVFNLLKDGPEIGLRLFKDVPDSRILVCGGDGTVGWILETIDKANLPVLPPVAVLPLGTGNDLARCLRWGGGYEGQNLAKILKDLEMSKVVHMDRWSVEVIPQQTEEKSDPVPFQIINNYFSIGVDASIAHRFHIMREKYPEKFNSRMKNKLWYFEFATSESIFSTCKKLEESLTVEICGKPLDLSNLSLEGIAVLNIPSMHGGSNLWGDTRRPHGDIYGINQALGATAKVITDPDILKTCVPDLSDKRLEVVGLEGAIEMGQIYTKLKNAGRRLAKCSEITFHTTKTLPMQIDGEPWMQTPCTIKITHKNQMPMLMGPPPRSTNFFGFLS

COc1ccc(-c2ccc(CN3C(=O)[C@@H](N)CS(=O)(=O)c4ccc(-c5nnc(C(C)(C)C#N)o5)cc43)cc2)cc1 [Example 45, 2-[5-[(3R)-3-amino-5-[[4-(4-methoxyphenyl)phenyl]methyl]-1,1,4-trioxo-2,3-dihydro-1λ^6,5-benzothiazepin-7-yl]-1,3,4-oxadiazol-2-yl]-2-methyl-propanenitrile]
IC50: 2.09 µM and 27.7 µM [lines of one column]

Source: patent US20260138976A1 (Hoffmann-La Roche Inc., priority 2022, published 2026)
